# Measured values reported in the supplement of paper PMC8728848.
# The other results are listed elsewhere or left out.
# Tests used:
# Test in all cases: glycan array binding signal (z-score within array); higher = stronger binding
# Details in all cases: glycan notation: IUPAC condensed, linker removed
# Fuc(a1-2)Gal = target: Fuc(a1-2)Gal
# How it was run: (§1)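 Arrays were curated from the Consortium for Functional Glycomics database, 3228 in total, and kept only where the protein sequence was available. Binding is expressed as a within-array Z-score. This score was averaged across arrays of the same protein sequence at different concentrations or buffers and across linkers, and negative values can be read as non-binding.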
# Fuc(a1-2)Gal(b1-3)GalNAc = target: Fuc(a1-2)Gal(b1-3)GalNAc
# How it was run: as §1
# [1] = target: Fuc(a1-2)Gal(b1-3)GalNAc(a1-3)[Fuc(a1-2)]Gal(b1-4)Glc
# How it was run: as §1
# [2] = target: Fuc(a1-2)Gal(b1-3)GalNAc(a1-3)[Fuc(a1-2)]Gal(b1-4)GlcNAc
# How it was run: as §1
# [3] = target: Fuc(a1-2)Gal(b1-3)GalNAc(b1-3)Gal
# How it was run: as §1
# [4] = target: Fuc(a1-2)Gal(b1-3)GalNAc(b1-3)Gal(a1-4)Gal(b1-4)Glc
# How it was run: as §1
# [5] = target: Fuc(a1-2)Gal(b1-3)GalNAc(b1-4)[Neu5Ac(a2-3)]Gal(b1-4)Glc
# How it was run: as §1
# Fuc(a1-2)Gal(b1-3)GlcNAc = target: Fuc(a1-2)Gal(b1-3)GlcNAc
# How it was run: as §1
# [6] = target: Fuc(a1-2)Gal(b1-3)GlcNAc(b1-2)Man(a1-3)[Fuc(a1-2)Gal(b1-3)GlcNAc(b1-2)Man(a1-6)]Man(b1-4)GlcNAc(b1-4)GlcNAc
# How it was run: as §1
# [7] = target: Fuc(a1-2)Gal(b1-3)GlcNAc(b1-2)Man(a1-3)[Fuc(a1-2)Gal(b1-3)GlcNAc(b1-2)Man(a1-6)]Man(b1-4)GlcNAc(b1-4)[Fuc(a1-6)]GlcNAc
# How it was run: as §1
# [8] = target: Fuc(a1-2)Gal(b1-3)GlcNAc(b1-3)Gal(b1-4)Glc
# How it was run: as §1
# [9] = target: Fuc(a1-2)Gal(b1-3)GlcNAc(b1-3)GalNAc
# How it was run: as §1
# [10] = target: Fuc(a1-2)Gal(b1-3)GlcNAc(b1-3)[Fuc(a1-2)Gal(b1-3)GlcNAc(b1-6)]GalNAc
# How it was run: as §1
# [11] = target: Fuc(a1-2)Gal(b1-3)GlcNAc(b1-3)[Gal(b1-4)GlcNAc(b1-6)]Gal(b1-4)Glc
# How it was run: as §1
# [12] = target: Fuc(a1-2)Gal(b1-3)GlcNAc(b1-3)[Neu5Ac(a2-6)Gal(b1-4)GlcNAc(b1-6)]Gal(b1-4)Glc
# How it was run: as §1
# [13] = target: Fuc(a1-2)Gal(b1-3)GlcNAc6S
# How it was run: as §1
# [14] = target: Fuc(a1-2)Gal(b1-3)[Fuc(a1-4)]GlcNAc
# How it was run: as §1
# [15] = target: Fuc(a1-2)Gal(b1-3)[Fuc(a1-4)]GlcNAc(b1-2)Man(a1-3)[Fuc(a1-2)Gal(b1-3)[Fuc(a1-4)]GlcNAc(b1-2)Man(a1-3)]Man(b1-4)GlcNAc(b1-4)GlcNAc
# How it was run: as §1
# [16] = target: Fuc(a1-2)Gal(b1-3)[Fuc(a1-4)]GlcNAc(b1-2)Man(a1-3)[Fuc(a1-2)Gal(b1-3)[Fuc(a1-4)]GlcNAc(b1-2)Man(a1-6)]Man(b1-4)GlcNAc(b1-4)[Fuc(a1-6)]GlcNAc(b1-4)[Fuc(a1-6)]GlcNAc
# How it was run: as §1
# [17] = target: Fuc(a1-2)Gal(b1-3)[Fuc(a1-4)]GlcNAc(b1-3)[Fuc(a1-3)[Gal(b1-4)]GlcNAc(b1-6)]Gal(b1-4)Glc
# How it was run: as §1
# [18] = target: Fuc(a1-2)Gal(b1-3)[Fuc(a1-4)]GlcNAc(b1-3)[Gal(b1-4)GlcNAc(b1-6)]Gal(b1-4)Glc
# How it was run: as §1
# [19] = target: Fuc(a1-2)Gal(b1-4)Fuc(a1-3)]GlcNAc(b1-2)Man(a1-3)[Fuc(a1-2)Gal(b1-4)[Fuc(a1-3)]GlcNAc(b1-2)Man(a1-6)]Man(b1-4)GlcNAc(b1-4)GlcNAc
# How it was run: as §1
# Fuc(a1-2)Gal(b1-4)Glc = target: Fuc(a1-2)Gal(b1-4)Glc
# How it was run: as §1
# Fuc(a1-2)Gal(b1-4)Glc6S = target: Fuc(a1-2)Gal(b1-4)Glc6S
# How it was run: as §1
# Fuc(a1-2)Gal(b1-4)GlcNAc = target: Fuc(a1-2)Gal(b1-4)GlcNAc
# How it was run: as §1
# [20] = target: Fuc(a1-2)Gal(b1-4)GlcNAc(b1-2)Man
# How it was run: as §1
# [21] = target: Fuc(a1-2)Gal(b1-4)GlcNAc(b1-2)Man(a1-3)[Fuc(a1-2)Gal(b1-4)GlcNAc(b1-2)Man(a1-6)]Man(b1-4)GlcNAc(b1-4)GlcNAc
# How it was run: as §1
# [22] = target: Fuc(a1-2)Gal(b1-4)GlcNAc(b1-2)Man(a1-3)[Fuc(a1-2)Gal(b1-4)GlcNAc(b1-2)Man(a1-6)]Man(b1-4)GlcNAc(b1-4)[Fuc(a1-6)]GlcNAc
# How it was run: as §1
# [23] = target: Fuc(a1-2)Gal(b1-4)GlcNAc(b1-2)[Fuc(a1-2)Gal(b1-4)GlcNAc(b1-4)]Man(a1-3)[Fuc(a1-2)Gal(b1-4)GlcNAc(b1-2)Man(a1-6)]Man(b1-4)GlcNAc(b1-4)GlcNAc
# How it was run: as §1
# [24] = target: Fuc(a1-2)Gal(b1-4)GlcNAc(b1-3)Gal(b1-4)GlcNAc
# How it was run: as §1
# [25] = target: Fuc(a1-2)Gal(b1-4)GlcNAc(b1-3)Gal(b1-4)GlcNAc(b1-2)Man(a1-3)[Fuc(a1-2)Gal(b1-4)GlcNAc(b1-3)Gal(b1-4)GlcNAc(b1-2)Man(a1-6)]Man(b1-4)GlcNAc(b1-4)GlcNAc
# How it was run: as §1
# [26] = target: Fuc(a1-2)Gal(b1-4)GlcNAc(b1-3)Gal(b1-4)GlcNAc(b1-3)Gal(b1-4)GlcNAc
# How it was run: as §1
# [27] = target: Fuc(a1-2)Gal(b1-4)GlcNAc(b1-3)GalNAc
# How it was run: as §1
# [28] = target: Fuc(a1-2)Gal(b1-4)GlcNAc(b1-3)[Fuc(a1-2)Gal(b1-4)GlcNAc(b1-6)]GalNAc
# How it was run: as §1
# [29] = target: Fuc(a1-2)Gal(b1-4)GlcNAc(b1-3)[Fuc(a1-3)[Gal(b1-4)]GlcNAc(b1-6)]Gal(b1-4)Glc
# How it was run: as §1
# [30] = target: Fuc(a1-2)Gal(b1-4)GlcNAc(b1-6)GalNAc
# How it was run: as §1
# [31] = target: Fuc(a1-2)Gal(b1-4)GlcNAc6S
# How it was run: as §1
# [32] = target: Fuc(a1-2)Gal(b1-4)[Fuc(a1-3)]GlcNAc
# How it was run: as §1
# [33] = target: Fuc(a1-2)Gal(b1-4)[Fuc(a1-3)]GlcNAc(b1-2)Man(a1-3)[Fuc(a1-2)Gal(b1-4)[Fuc(a1-3)]GlcNAc(b1-2)Man(a1-6)]Man(b1-4)GlcNAc(b1-4)[Fuc(a1-6)]GlcNAc
# How it was run: as §1
# [34] = target: Fuc(a1-2)Gal(b1-4)[Fuc(a1-3)]GlcNAc(b1-2)[Fuc(a1-2)Gal(b1-4)[Fuc(a1-3)]GlcNAc(b1-4)]Man(a1-3)[Fuc(a1-2)Gal(b1-4)[Fuc(a1-3)]GlcNAc(b1-2)Man(a1-6)]Man(b1-4)GlcNAc(b1-4)GlcNAc
# How it was run: as §1
# [35] = target: Fuc(a1-2)Gal(b1-4)[Fuc(a1-3)]GlcNAc(b1-3)Gal(b1-4)[Fuc(a1-3)]GlcNAc
# How it was run: as §1
# [36] = target: Fuc(a1-2)Gal(b1-4)[Fuc(a1-3)]GlcNAc(b1-3)Gal(b1-4)[Fuc(a1-3)]GlcNAc(b1-3)Gal(b1-4)[Fuc(a1-3)]GlcNAc
# How it was run: as §1
# [37] = target: Fuc(a1-2)Gal(b1-4)[Fuc(a1-3)]GlcNAc(b1-3)GalNAc
# How it was run: as §1
# [38] = target: Fuc(a1-2)Gal(b1-4)[Fuc(a1-3)]GlcNAc(b1-3)[Neu5Ac(a2-6)Gal(b1-4)GlcNAc(b1-6)]Gal(b1-4)Glc
# How it was run: as §1
# [39] = target: Fuc(a1-2)Gal3S(b1-4)GlcNAc
# How it was run: as §1
binder,measurement,setting,value
APVPVTKLVCDGDTYKCTAYLDFGDGRWVAQWDTNVFHTG [PhoSpL (Pholiota squarrosa)],glycan array binding signal (z-score),Fuc(a1-2)Gal,0.241
same,glycan array binding signal (z-score),Fuc(a1-2)Gal(b1-3)GalNAc,-0.03
same,glycan array binding signal (z-score),[1],-0.555
same,glycan array binding signal (z-score),[2],-0.011
same,glycan array binding signal (z-score),[3],0.268
same,glycan array binding signal (z-score),[4],-0.073
same,glycan array binding signal (z-score),[5],0.105
same,glycan array binding signal (z-score),Fuc(a1-2)Gal(b1-3)GlcNAc,-0.281
same,glycan array binding signal (z-score),[6],0.376
same,glycan array binding signal (z-score),[7],1.1
same,glycan array binding signal (z-score),[8],-0.025
same,glycan array binding signal (z-score),[9],-0.435
same,glycan array binding signal (z-score),[10],-0.294
same,glycan array binding signal (z-score),[11],-0.38
same,glycan array binding signal (z-score),[12],-0.053
same,glycan array binding signal (z-score),[13],-0.511
same,glycan array binding signal (z-score),[14],0.022
same,glycan array binding signal (z-score),[15],0.363
same,glycan array binding signal (z-score),[16],0.334
same,glycan array binding signal (z-score),[17],-0.809
same,glycan array binding signal (z-score),[18],-0.343
same,glycan array binding signal (z-score),[19],-0.095
same,glycan array binding signal (z-score),Fuc(a1-2)Gal(b1-4)Glc,-0.576
same,glycan array binding signal (z-score),Fuc(a1-2)Gal(b1-4)Glc6S,-0.213
same,glycan array binding signal (z-score),Fuc(a1-2)Gal(b1-4)GlcNAc,-0.276
same,glycan array binding signal (z-score),[20],0.107
same,glycan array binding signal (z-score),[21],-0.525
same,glycan array binding signal (z-score),[22],1.39
same,glycan array binding signal (z-score),[23],-0.382
same,glycan array binding signal (z-score),[24],-0.302
same,glycan array binding signal (z-score),[25],-0.166
same,glycan array binding signal (z-score),[26],-0.199
same,glycan array binding signal (z-score),[27],0.002
same,glycan array binding signal (z-score),[28],-0.42
same,glycan array binding signal (z-score),[29],-0.059
same,glycan array binding signal (z-score),[30],-0.46
same,glycan array binding signal (z-score),[31],-0.693
same,glycan array binding signal (z-score),[32],-0.139
same,glycan array binding signal (z-score),[33],0.277
same,glycan array binding signal (z-score),[34],0.131
same,glycan array binding signal (z-score),[35],-0.192
same,glycan array binding signal (z-score),[36],-0.338
same,glycan array binding signal (z-score),[37],0.105
same,glycan array binding signal (z-score),[38],-0.307
same,glycan array binding signal (z-score),[39],0.013
